{"source": "PubChem BioAssay AID2147", "about": "(National Center for Advancing Translational Sciences (NCATS), 2009)", "note": "Among all 230,000 compounds or so, about 3,600 (1.6%) were called active. Inconclusive means that the source gave no clear call. Such entries were picked first, then a sample of the others. The call rests on the fitted dose curve; in most records, active means well fitted inhibition curve with a large enough effect (not every such curve was filed as active); inconclusive means small, poorly fitted or top-dose-only effect, or another doubt; inactive means no such curve, though single readings can be large or run the other way. Potencies of inconclusive entries are doubtful fits and often do not repeat. Further: nearly all actives have a fitted effect of over 50% in size. Potency means the concentration at half of the fitted maximal effect; tags describe the fitted curve by direction and shape.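 Wherever activity change, negative = inhibition is given: 0% = wells with enzyme and -100% = buffer wells without enzyme.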", "data": [{"target": "Lysine-specific demethylase 4E (Homo sapiens) (UniProt B2RXH2)", "sequence (B2RXH2 whole entry, looked up, the tested form may be a part)": "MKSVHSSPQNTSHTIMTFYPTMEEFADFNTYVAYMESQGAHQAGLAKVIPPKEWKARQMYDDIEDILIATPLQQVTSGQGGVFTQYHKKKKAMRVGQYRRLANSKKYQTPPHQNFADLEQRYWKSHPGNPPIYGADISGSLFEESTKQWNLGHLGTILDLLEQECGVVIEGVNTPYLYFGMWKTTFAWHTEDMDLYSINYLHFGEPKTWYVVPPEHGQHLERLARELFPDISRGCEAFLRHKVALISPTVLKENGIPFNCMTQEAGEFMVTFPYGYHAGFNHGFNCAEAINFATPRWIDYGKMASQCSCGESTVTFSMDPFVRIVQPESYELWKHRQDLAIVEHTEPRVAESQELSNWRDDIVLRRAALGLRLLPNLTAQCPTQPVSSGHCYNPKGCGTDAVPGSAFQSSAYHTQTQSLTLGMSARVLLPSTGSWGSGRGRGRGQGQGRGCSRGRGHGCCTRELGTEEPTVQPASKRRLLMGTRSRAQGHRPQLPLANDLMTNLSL", "assay": "qHTS Assay for Inhibitors of Human Jumonji Domain Containing 2E (JMJD2E)", "settings": "JMJD2E catalytic domain, FDH-coupled NADH fluorescence (FDH is formaldehyde dehydrogenase); series mostly up to 57.1 µM; activity change, negative = inhibition: at the top concentration", "values": [{"smiles": "Cc1ccc(-n2nnnc2SCC(=O)c2cc(C)n(-c3cc(C)on3)c2C)c(C)c1", "Potency": "inconclusive: 39.8 µM [inhibitor, single point]"}, {"smiles": "COC(=O)c1ccc(N/C=C/C(=O)c2ccc(OC)c(OC)c2)cc1", "Potency": "inconclusive: 31.6 µM [inhibitor, partial curve]"}, {"smiles": "O=C1C(Cl)=C(Nc2ccccc2O)C(=O)N1c1ccccc1", "Potency": "inconclusive: 25.1 µM [inhibitor, single point]"}, {"smiles": "CCc1ccc(C(=O)CSc2n[nH]c(C)n2)cc1", "Potency": "inconclusive: 39.8 µM [inhibitor, single point]"}, {"smiles": "CCOC(=O)c1ccccc1NC(=O)Cn1cnc2c(cnn2-c2ccccc2)c1=O", "Potency": "inconclusive: 39.8 µM [inhibitor, single point]"}, {"smiles": "COc1cccc(/C=N/NC(=O)CCn2c3ccccc3c3ccccc32)c1", "Potency": "inconclusive: 35.5 µM [inhibitor, single point]"}, {"smiles": "COc1cc(C2Nc3c(F)cccc3C3C=CCC32)cc(Br)c1OC", "note": "(stereo not drawn)", "Potency": "inconclusive: 8.91 µM [inhibitor, full curve, poor fit]"}, {"smiles": "CCOC(=O)c1c(-n2cnnn2)sc2c1CCCC2", "Potency": "inconclusive: 28.2 µM [inhibitor, partial curve]"}, {"smiles": "CC(c1ccc(F)cc1)n1cc(C(=O)NCCN(C)C)nn1", "note": "(stereo not drawn)", "activity change, negative = inhibition": "inactive: 6.5%"}, {"smiles": "CN(C)NC1CC(=O)N(c2ccccc2)C1=O", "note": "(stereo not drawn)", "Potency": "inconclusive: 25.1 µM [inhibitor, single point]"}, {"smiles": "COc1cccc(-c2nc3cc(C)ccc3o2)c1", "Potency": "inconclusive: 35.5 µM [inhibitor, partial curve]"}, {"smiles": "Cc1cc(N2CCC(C)CC2)nc2ccc(N3C(=O)CCC3=O)cc12", "Potency": "inconclusive: 31.6 µM [inhibitor, partial curve]"}, {"smiles": "Cc1cc(C)n(-c2nc(O)cc(=O)[nH]2)n1", "Potency": "inconclusive: 39.8 µM [inhibitor, single point]"}, {"smiles": "Cn1c(=O)[nH]c(=O)c2c1nc(Br)n2CC(O)COc1ccccc1", "note": "(stereo not drawn)", "Potency": "inconclusive: 39.8 µM [inhibitor, single point]"}, {"smiles": "COC(=O)C1=C(C(=O)OC)SC(=C2C(=S)C(C)(C)N(C(=O)CC(C)C)c3ccccc32)S1", "activity change, negative = inhibition": "inactive: 4.12%"}, {"smiles": "CCCc1cc(=O)n2[nH]c(C)c(-c3ccccc3)c2n1", "Potency": "inconclusive: 25.1 µM [inhibitor, single point]"}, {"smiles": "COCCCN1C(=O)C(O)=C(C(=O)c2ccc(C)o2)C1c1cccc(Br)c1", "note": "(stereo not drawn)", "activity change, negative = inhibition": "inactive: -7.23%"}, {"smiles": "O=C(CS(=O)(=O)c1c[nH]c2ccccc12)Nc1ccc2c(c1)OCCO2", "Potency": "inconclusive: 39.8 µM [inhibitor, single point]"}]}]}
